This note sets out measurements from publication PMC4336329 (PLoS ONE, 2015).

Among all 310,000 compounds or so, about 2,200 (0.71%) showed an effect of 50% or more. Effects have a minus sign here. The list shows a part of the results.

In this experiment the target is human ether-à-go-go-related gene (hERG) potassium channel (human, UniProt Q12809). Briefly: primary screen, population patch clamp on CHO cells stably expressing hERG.
Chain of human ether-à-go-go-related gene (hERG) potassium channel (Q12809 whole entry, looked up): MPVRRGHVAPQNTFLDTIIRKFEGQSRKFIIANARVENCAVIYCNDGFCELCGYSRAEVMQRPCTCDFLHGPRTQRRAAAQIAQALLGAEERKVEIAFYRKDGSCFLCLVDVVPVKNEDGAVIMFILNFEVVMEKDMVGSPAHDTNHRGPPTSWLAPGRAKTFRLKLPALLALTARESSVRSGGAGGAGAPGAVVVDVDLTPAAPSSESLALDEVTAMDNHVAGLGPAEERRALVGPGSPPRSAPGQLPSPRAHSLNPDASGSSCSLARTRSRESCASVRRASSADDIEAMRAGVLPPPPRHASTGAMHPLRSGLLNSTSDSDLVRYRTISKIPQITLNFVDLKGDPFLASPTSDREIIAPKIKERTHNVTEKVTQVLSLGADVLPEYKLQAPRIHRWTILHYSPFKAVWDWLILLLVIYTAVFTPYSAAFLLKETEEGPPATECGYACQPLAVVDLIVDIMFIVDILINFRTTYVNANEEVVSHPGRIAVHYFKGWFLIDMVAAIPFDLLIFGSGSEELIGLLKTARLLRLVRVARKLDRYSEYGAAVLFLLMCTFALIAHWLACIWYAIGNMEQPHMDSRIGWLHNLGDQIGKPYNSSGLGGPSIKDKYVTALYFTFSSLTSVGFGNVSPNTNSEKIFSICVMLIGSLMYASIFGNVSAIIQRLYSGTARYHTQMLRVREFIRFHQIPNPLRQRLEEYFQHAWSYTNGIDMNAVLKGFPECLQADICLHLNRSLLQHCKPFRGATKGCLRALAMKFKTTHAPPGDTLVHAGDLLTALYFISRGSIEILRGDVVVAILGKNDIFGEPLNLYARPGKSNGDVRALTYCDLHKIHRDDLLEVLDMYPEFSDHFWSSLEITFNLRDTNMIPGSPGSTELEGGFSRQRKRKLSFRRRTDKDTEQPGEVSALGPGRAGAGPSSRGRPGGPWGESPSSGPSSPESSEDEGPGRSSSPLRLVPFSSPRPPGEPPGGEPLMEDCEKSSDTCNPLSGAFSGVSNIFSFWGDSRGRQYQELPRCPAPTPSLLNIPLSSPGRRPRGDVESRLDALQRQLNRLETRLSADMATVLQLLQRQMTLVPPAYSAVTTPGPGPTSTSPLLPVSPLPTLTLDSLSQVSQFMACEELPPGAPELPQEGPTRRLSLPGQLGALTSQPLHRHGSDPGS
For `Cn1c(NCCCO)nc2ccccc21`, the “hERG current change (%, negative = inhibition) at 1uM” value came out at 10.1%.

For the compound `COc1ccc(NC(=O)Nc2nnc(-c3ccco3)s2)cc1`, the “hERG current change (%, negative = inhibition) at 1uM” value was determined as 12.3%.

Consider `Cc1cc(C)nc(N/N=C/c2cccc(Cl)c2)n1`, for which the “hERG current change (%, negative = inhibition) at 1uM” value is on record as 0.762%.

Consider `COc1ccc(S(=O)(=O)N2CCOCC2)cc1NC(=O)CSc1ccc(F)cc1`, for which the “hERG current change (%, negative = inhibition) at 1uM” value is listed as -8.57%.

For the compound `O=C(Cn1cnc2ccccc2c1=O)N1CCN(S(=O)(=O)c2ccc(F)cc2)CC1`, the “hERG current change (%, negative = inhibition) at 1uM” value came to 5.18%.

With `CCOc1ccc(NC(=O)C(C)C(Cc2ccc(C)cc2)C(=O)O)cc1` (centres unmarked), the “hERG current change (%, negative = inhibition) at 1uM” value is 12.1%.

Regarding `O=C(O)C1CC=C(Cl)CC1C(=O)NCC1OCCc2ccccc21` (centres unmarked), the “hERG current change (%, negative = inhibition) at 1uM” value was found to be 13.2%.

With `O=C(CSc1ncnc2sccc12)NCc1ccc2c(c1)OCO2`, the “hERG current change (%, negative = inhibition) at 1uM” value is recorded as 2.16%.

On to `CCCc1nn2c(=O)cc(CSCC(=O)Nc3ccccc3)nc2s1`, for which the “hERG current change (%, negative = inhibition) at 1uM” value is given as 28.4%.

Consider `O=C(OCC(=O)N1CCCc2ccccc21)c1ccc(S(=O)(=O)C(F)F)cc1`, for which the “hERG current change (%, negative = inhibition) at 1uM” value was found to be 18.2%.

`Cc1ccccc1OCCC(=O)OCC(=O)NCCc1ccccc1`: the “hERG current change (%, negative = inhibition) at 1uM” value is 2.84%.

Consider `CCOc1cccc(NC(=O)c2cccc(F)c2)c1`, for which the “hERG current change (%, negative = inhibition) at 1uM” value is recorded as 14.4%.

On to `COc1ccc(/C=C2\C(=O)ON=C2c2cccc([N+](=O)[O-])c2)cc1`, for which the “hERG current change (%, negative = inhibition) at 1uM” value is recorded as 10%.

For `COc1ccccc1CN(C)C(=O)c1cc(-c2cc(OC)c(OC)c(OC)c2)nc2ccccc12`, the “hERG current change (%, negative = inhibition) at 1uM” value was 15%.

For the compound `CCSc1nnc(NC(=O)C2CC(=O)N(Cc3ccc(C)cc3)C2)s1` (centres unmarked), the “hERG current change (%, negative = inhibition) at 1uM” value turned out to be 3.25%.

On to `Cc1ccccc1C(=O)NC(CC(C)C)C(=O)Nc1cccc(S(=O)(=O)N(C)C)c1` (centres unmarked), for which the “hERG current change (%, negative = inhibition) at 1uM” value is on record as 12.5%.

With `O=C1C=C(OCc2ccccc2)CN1`, the “hERG current change (%, negative = inhibition) at 1uM” value was found to be 9.1%.

As to `O=c1c2ccccc2oc2ccc(NCCCn3ccnc3)cc12`, the “hERG current change (%, negative = inhibition) at 1uM” value turned out to be 15.5%.

For the compound `CC(C)(C)NC(=O)COc1ccc(CNn2nnnc2N)cc1`, the “hERG current change (%, negative = inhibition) at 1uM” value is reported as 15.2%.

As to `COc1ccc(-n2nc3c(c2NC(=O)CCl)CSC3)cc1`, the “hERG current change (%, negative = inhibition) at 1uM” value was found to be 13.1%.

On to `Cc1ccccc1N(CC(=O)NCC1CCCO1)C(=O)C1(C)CC(=O)N=C2C=CC=CN21` (centres unmarked), for which the “hERG current change (%, negative = inhibition) at 1uM” value is 7.3%.

For `Cn1c(-c2ccc3c(c2)OCO3)cnc1NCc1cccc(Cl)c1.O=C(O)C(=O)O`, the “hERG current change (%, negative = inhibition) at 1uM” value is on record as -18.3%.

Take `NC(=O)Cn1c(=O)n(Cc2ccco2)c(=O)c2c3c(sc21)CCCCC3`: the “hERG current change (%, negative = inhibition) at 1uM” value was 12.3%.

As for `C=CCNC(=S)NNC(=O)c1ccccc1OCC`, the “hERG current change (%, negative = inhibition) at 1uM” value is reported as 8.88%.

With `COc1ccccc1C(=O)NCc1nnc(SCC(=O)Nc2nccs2)n1C`, the “hERG current change (%, negative = inhibition) at 1uM” value came to 13.7%.

Regarding `CC(C)N=c1c([N+](=O)[O-])nn(C)n1O`, the “hERG current change (%, negative = inhibition) at 1uM” value is -21.3%.

On to `COc1cc(NC(=O)c2cc3ccccc3o2)ccc1NC(=O)c1ccco1`, for which the “hERG current change (%, negative = inhibition) at 1uM” value is 0.419%.

For `CCOC(=O)C1(CC2CCCCO2)CCN(C2CCSCC2)CC1` (centres unmarked), the “hERG current change (%, negative = inhibition) at 1uM” value is -5.25%.

In the case of `Cc1nn(-c2ccccn2)c2c1C(=O)CC(C)(C)C2Br` (centres unmarked), the “hERG current change (%, negative = inhibition) at 1uM” value is 3.12%.

Take `Cc1ccc(C(CC(=O)O)Nc2nc(N3CCOCC3)nc(N3CCOCC3)n2)cc1` (centres unmarked): the “hERG current change (%, negative = inhibition) at 1uM” value is 5.93%.

In the case of `CCCCC(=O)OCC(=O)Nc1cccc(S(=O)(=O)NC2=NCCCCC2)c1`, the “hERG current change (%, negative = inhibition) at 1uM” value is 11.1%.

As for `CC1CCc2c(sc(NC(=O)c3ccc(N4C(=O)CCC4=O)cc3)c2C(N)=O)C1` (centres unmarked), the “hERG current change (%, negative = inhibition) at 1uM” value came out at 3.09%.

Consider `O=C(/C=C/c1ccc2c(c1)OCCCO2)c1ccccc1O`, for which the “hERG current change (%, negative = inhibition) at 1uM” value was determined as 7.78%.

On to `Clc1ccc(-c2nnc(-c3ccc(Br)cc3)c(N3CCSCC3)n2)cc1`, for which the “hERG current change (%, negative = inhibition) at 1uM” value stood at 5.94%.

On to `CCOC(=O)C1=C(O)/C(=C/c2ccc(OCC(=O)O)c(OCC)c2)SC1=Nc1ccccc1`, for which the “hERG current change (%, negative = inhibition) at 1uM” value came out at 12.9%.

As for `COc1cc(-c2nc3cnccn3c2Nc2c(C)cccc2C)ccc1O`, the “hERG current change (%, negative = inhibition) at 1uM” value came out at 11.3%.

Consider `CC(=O)Oc1cccc(N2C(=O)c3ccc(C(=O)Nc4cccnc4)cc3C2=O)c1`, for which the “hERG current change (%, negative = inhibition) at 1uM” value was determined as 9.97%.

`CCCSc1nsc(NC(=O)C(c2ccccc2)c2ccccc2)n1`: the “hERG current change (%, negative = inhibition) at 1uM” value amounted to 17.3%.

For `COc1ccccc1N1CCN(C(=O)c2nn(C)c3c2CS(=O)(=O)c2ccccc2-3)CC1`, the “hERG current change (%, negative = inhibition) at 1uM” value is listed as 13.2%.

Consider `O=C(COC(=O)c1cc(=O)[nH]c2ccccc12)NCc1cccc(Cl)c1`, for which the “hERG current change (%, negative = inhibition) at 1uM” value is -4.5%.

As to `COc1ccc(OC)c(NC(=O)CSc2nc(N3CCOCC3)nc(N3CCOCC3)n2)c1`, the “hERG current change (%, negative = inhibition) at 1uM” value amounted to 0.455%.

As to `CSc1ccccc1NC(=O)CN(C)C(=O)CNc1ccc(C(F)(F)F)cc1[N+](=O)[O-]`, the “hERG current change (%, negative = inhibition) at 1uM” value was determined as 8.68%.

On to `O=C(COc1ccc(F)cc1Cl)Nc1ccc(S(=O)(=O)Nc2nccs2)cc1`, for which the “hERG current change (%, negative = inhibition) at 1uM” value came to 5.21%.

Regarding `[O-][n+]1cccc2c(Br)cc(Br)c(O)c21`, the “hERG current change (%, negative = inhibition) at 1uM” value was -1.06%.
